{"source": "patent US20090136523A1", "binders": {"B1": {"name": "rhuMAb 411 (antibody, human IgG1, kappa)", "heavy": "EVQLVESGAGVKQPGGTLRLTCTASGFSLTTYGVHWVRQAPGKGLEWVGVIWGDGRTDYDAAFMSRVTISKDTSKSTVYLQMNSLRAEDTAVYYCMRNRHDWFDYWGQGTTVTVSS[letters of human IgG1 constant region left out]", "light": "DILLTQSPSSLSATPGERATITCRASQGIRNNLNWYQQKPGQAPRLLIYYSSNLQSGVPSRFSGSGSGTDFTLTISRLQPEDVAAYYCQQSIKLPFTFGSGTKVEIKRTVAAPSVFIFPPSDEQLKSGTASVVCLLNNFYPREAKVQWKVDNALQSGNSQESVTEQDSKDSTYSLSSTLTLSKADYEKHKVYACEVTHQGLSSPVTKSFNRGEC"}}, "test_in_all_cases": "peptide microarray", "key": {"peptide 98 (human)": {"target": "peptide 98 (human)"}, "peptide 133 (human)": {"target": "peptide 133 (human)"}, "peptide 8 (human)": {"target": "peptide 8 (human)"}, "peptide 10 (human)": {"target": "peptide 10 (human)"}, "peptide 107 (human)": {"target": "peptide 107 (human)"}, "peptide 124 (human)": {"target": "peptide 124 (human)"}, "peptide 70 (human)": {"target": "peptide 70 (human)"}, "peptide 27 (human)": {"target": "peptide 27 (human)"}, "peptide 11 (human)": {"target": "peptide 11 (human)"}, "peptide 51 (human)": {"target": "peptide 51 (human)"}, "peptide 17 (human)": {"target": "peptide 17 (human)"}, "peptide 37 (human)": {"target": "peptide 37 (human)"}, "peptide 113 (human)": {"target": "peptide 113 (human)"}, "peptide 93 (human)": {"target": "peptide 93 (human)"}, "peptide 12 (human)": {"target": "peptide 12 (human)"}, "peptide 7 (human)": {"target": "peptide 7 (human)"}, "peptide 21 (human)": {"target": "peptide 21 (human)"}, "peptide 99 (human)": {"target": "peptide 99 (human)"}, "peptide 91 (human)": {"target": "peptide 91 (human)"}, "peptide 18 (human)": {"target": "peptide 18 (human)"}, "peptide 14 (human)": {"target": "peptide 14 (human)"}, "peptide 46 (human)": {"target": "peptide 46 (human)"}, "peptide 94 (human)": {"target": "peptide 94 (human)"}, "peptide 109 (human)": {"target": "peptide 109 (human)"}, "peptide 33 (human)": {"target": "peptide 33 (human)"}, "peptide 102 (human)": {"target": "peptide 102 (human)"}, "peptide 115 (human)": {"target": "peptide 115 (human)"}, "peptide 92 (human)": {"target": "peptide 92 (human)"}, "peptide 106 (human)": {"target": "peptide 106 (human)"}, "peptide 4 (human)": {"target": "peptide 4 (human)"}, "peptide 66 (human)": {"target": "peptide 66 (human)"}, "peptide 72 (human)": {"target": "peptide 72 (human)"}, "peptide 6 (human)": {"target": "peptide 6 (human)"}, "peptide 96 (human)": {"target": "peptide 96 (human)"}, "peptide 57 (human)": {"target": "peptide 57 (human)"}, "peptide 77 (human)": {"target": "peptide 77 (human)"}, "peptide 26 (human)": {"target": "peptide 26 (human)"}, "peptide 53 (human)": {"target": "peptide 53 (human)"}, "peptide 31 (human)": {"target": "peptide 31 (human)"}, "peptide 110 (human)": {"target": "peptide 110 (human)"}, "peptide 19 (human)": {"target": "peptide 19 (human)"}, "peptide 88 (human)": {"target": "peptide 88 (human)"}, "peptide 49 (human)": {"target": "peptide 49 (human)"}, "peptide 117 (human)": {"target": "peptide 117 (human)"}, "peptide 86 (human)": {"target": "peptide 86 (human)"}, "peptide 38 (human)": {"target": "peptide 38 (human)"}, "peptide 123 (human)": {"target": "peptide 123 (human)"}, "peptide 75 (human)": {"target": "peptide 75 (human)"}, "peptide 103 (human)": {"target": "peptide 103 (human)"}, "peptide 84 (human)": {"target": "peptide 84 (human)"}, "peptide 32 (human)": {"target": "peptide 32 (human)"}, "peptide 34 (human)": {"target": "peptide 34 (human)"}, "peptide 82 (human)": {"target": "peptide 82 (human)"}, "peptide 129 (human)": {"target": "peptide 129 (human)"}, "peptide 15 (human)": {"target": "peptide 15 (human)"}, "peptide 45 (human)": {"target": "peptide 45 (human)"}, "peptide 65 (human)": {"target": "peptide 65 (human)"}, "peptide 100 (human)": {"target": "peptide 100 (human)"}, "peptide 79 (human)": {"target": "peptide 79 (human)"}, "peptide 80 (human)": {"target": "peptide 80 (human)"}, "peptide 20 (human)": {"target": "peptide 20 (human)"}, "peptide 47 (human)": {"target": "peptide 47 (human)"}}, "data": [{"binder": "B1", "values": [{"measurement": "Mean Signal Value", "setting": "peptide 98 (human)", "value": 0.00481}, {"measurement": "Mean Signal Value", "setting": "peptide 133 (human)", "value": 6.51}, {"measurement": "Mean Signal Value", "setting": "peptide 8 (human)", "value": 0.736}, {"measurement": "Mean Signal Value", "setting": "peptide 10 (human)", "value": 0.0192}, {"measurement": "Mean Signal Value", "setting": "peptide 107 (human)", "value": 10.6}, {"measurement": "Mean Signal Value", "setting": "peptide 124 (human)", "value": 12.7}, {"measurement": "Mean Signal Value", "setting": "peptide 70 (human)", "value": 1}, {"measurement": "Mean Signal Value", "setting": "peptide 27 (human)", "value": 0.00481}, {"measurement": "Mean Signal Value", "setting": "peptide 11 (human)", "value": 5.78}, {"measurement": "Mean Signal Value", "setting": "peptide 51 (human)", "value": 0.856}, {"measurement": "Mean Signal Value", "setting": "peptide 17 (human)", "value": 0.0625}, {"measurement": "Mean Signal Value", "setting": "peptide 37 (human)", "value": 98.2}, {"measurement": "Mean Signal Value", "setting": "peptide 113 (human)", "value": 0.0288}, {"measurement": "Mean Signal Value", "setting": "peptide 93 (human)", "value": 0.269}, {"measurement": "Mean Signal Value", "setting": "peptide 12 (human)", "value": 0}, {"measurement": "Mean Signal Value", "setting": "peptide 7 (human)", "value": 20.6}, {"measurement": "Mean Signal Value", "setting": "peptide 21 (human)", "value": 0.197}, {"measurement": "Mean Signal Value", "setting": "peptide 99 (human)", "value": 0.0865}, {"measurement": "Mean Signal Value", "setting": "peptide 91 (human)", "value": 2.3}, {"measurement": "Mean Signal Value", "setting": "peptide 18 (human)", "value": 0}, {"measurement": "Mean Signal Value", "setting": "peptide 14 (human)", "value": 0.00962}, {"measurement": "Mean Signal Value", "setting": "peptide 46 (human)", "value": 0}, {"measurement": "Mean Signal Value", "setting": "peptide 94 (human)", "value": 0.0433}, {"measurement": "Mean Signal Value", "setting": "peptide 109 (human)", "value": 0}, {"measurement": "Mean Signal Value", "setting": "peptide 33 (human)", "value": 21.8}, {"measurement": "Mean Signal Value", "setting": "peptide 102 (human)", "value": 0.0192}, {"measurement": "Mean Signal Value", "setting": "peptide 115 (human)", "value": 0.0673}, {"measurement": "Mean Signal Value", "setting": "peptide 92 (human)", "value": 11.9}, {"measurement": "Mean Signal Value", "setting": "peptide 106 (human)", "value": 0.245}, {"measurement": "Mean Signal Value", "setting": "peptide 4 (human)", "value": 51.3}, {"measurement": "Mean Signal Value", "setting": "peptide 66 (human)", "value": 0.111}, {"measurement": "Mean Signal Value", "setting": "peptide 72 (human)", "value": 10.1}, {"measurement": "Mean Signal Value", "setting": "peptide 6 (human)", "value": 97.5}, {"measurement": "Mean Signal Value", "setting": "peptide 96 (human)", "value": 0.0144}, {"measurement": "Mean Signal Value", "setting": "peptide 57 (human)", "value": 9.67}, {"measurement": "Mean Signal Value", "setting": "peptide 77 (human)", "value": 13.7}, {"measurement": "Mean Signal Value", "setting": "peptide 26 (human)", "value": 0.0337}, {"measurement": "Mean Signal Value", "setting": "peptide 53 (human)", "value": 0.00481}, {"measurement": "Mean Signal Value", "setting": "peptide 31 (human)", "value": 2.33}, {"measurement": "Mean Signal Value", "setting": "peptide 110 (human)", "value": 0.024}, {"measurement": "Mean Signal Value", "setting": "peptide 19 (human)", "value": 0}, {"measurement": "Mean Signal Value", "setting": "peptide 88 (human)", "value": 0}, {"measurement": "Mean Signal Value", "setting": "peptide 49 (human)", "value": 0.962}, {"measurement": "Mean Signal Value", "setting": "peptide 117 (human)", "value": 0.00962}, {"measurement": "Mean Signal Value", "setting": "peptide 86 (human)", "value": 0.524}, {"measurement": "Mean Signal Value", "setting": "peptide 38 (human)", "value": 4.77}, {"measurement": "Mean Signal Value", "setting": "peptide 123 (human)", "value": 0.438}, {"measurement": "Mean Signal Value", "setting": "peptide 75 (human)", "value": 9.38}, {"measurement": "Mean Signal Value", "setting": "peptide 103 (human)", "value": 0}, {"measurement": "Mean Signal Value", "setting": "peptide 84 (human)", "value": 17.2}, {"measurement": "Mean Signal Value", "setting": "peptide 32 (human)", "value": 0.0192}, {"measurement": "Mean Signal Value", "setting": "peptide 34 (human)", "value": 15.7}, {"measurement": "Mean Signal Value", "setting": "peptide 82 (human)", "value": 67.8}, {"measurement": "Mean Signal Value", "setting": "peptide 129 (human)", "value": 23.3}, {"measurement": "Mean Signal Value", "setting": "peptide 15 (human)", "value": 0}, {"measurement": "Mean Signal Value", "setting": "peptide 45 (human)", "value": 0}, {"measurement": "Mean Signal Value", "setting": "peptide 65 (human)", "value": 40.8}, {"measurement": "Mean Signal Value", "setting": "peptide 100 (human)", "value": 0.00962}, {"measurement": "Mean Signal Value", "setting": "peptide 79 (human)", "value": 96.4}, {"measurement": "Mean Signal Value", "setting": "peptide 80 (human)", "value": 17.7}, {"measurement": "Mean Signal Value", "setting": "peptide 20 (human)", "value": 0.0577}, {"measurement": "Mean Signal Value", "setting": "peptide 47 (human)", "value": 0}]}]}
